{"source": "PubChem BioAssay AID540317", "about": "(National Center for Advancing Translational Sciences (NCATS), 2011)", "note": "Hit rate of the full screen: of about 390,000 compounds, about 2,200 (0.56%) were called active. The inconclusive results got no clear call from the source; some entries with a clear call stand among them for comparison. Calls follow the shape of the dose curve; as a rule, active = well fitted inhibition curve with a large enough effect; inconclusive = small, poorly fitted or top-dose-only effect; inactive = no such curve, though single readings can be large or run the other way. Potencies of inconclusive entries are doubtful fits and often do not repeat. Potency is read from the fitted curve at half-maximal effect; tags tell the direction and shape of the fitted curve."}
{"target": "Chromobox protein homolog 1 (Homo sapiens) (UniProt P83916)", "sequence (P83916 whole entry, looked up)": "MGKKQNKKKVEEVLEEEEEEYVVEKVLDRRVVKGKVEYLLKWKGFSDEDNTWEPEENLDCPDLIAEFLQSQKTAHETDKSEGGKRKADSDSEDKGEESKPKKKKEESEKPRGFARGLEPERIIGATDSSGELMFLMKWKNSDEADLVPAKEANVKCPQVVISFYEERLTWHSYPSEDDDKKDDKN", "experiment": "HTS for Inhibitors of HP1-beta Chromodomain Interactions with Methylated Histone Tails; also: nearly all actives have a fitted effect of over 70% in size", "conditions": "AlphaScreen HP1-beta / biotin-H3K9me3 peptide binding; series mostly up to 114 µM; activity change, negative = inhibition: at the top concentration", "how_it_was_run": "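Compound inhibition of the preformed complex between 50 nM HP1-beta and 50 nM biotinylated H3K9me3 peptide was read by AlphaScreen. Buffer was PBS pH 7.4 with 0.01% Tween-20. Incubations ran 30 min at room temperature, with 10 ug/mL donor/acceptor beads.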"}
{"smiles": "CCN(C(=O)c1cc2cc(Br)cc(OC)c2oc1=O)c1ccccc1", "activity change, negative = inhibition": "inactive: 10.9%"}
{"smiles": "C/C(=N\\Nc1nnc(C)c(=O)[nH]1)C(=O)O", "activity change, negative = inhibition": "inactive: 37.3%"}
{"smiles": "Cc1ccnc(NC(=O)c2sc3cc(Cl)ccc3c2Cl)c1", "activity change, negative = inhibition": "inactive: 25.3%"}
{"smiles": "Cc1nn(CC(=O)N2CCN(c3cccc(Cl)c3)CC2)c(=O)c2c1sc1ccccc12", "activity change, negative = inhibition": "inactive: 11.3%"}
{"smiles": "O=C1COC(c2ccccc2)C2CCCCN12", "note": "(stereo not drawn)", "activity change, negative = inhibition": "inactive: 26.2%"}
{"smiles": "O=C(Nc1cccc(O)c1)c1ccc(NC(=O)c2cccs2)cc1", "activity change, negative = inhibition": "inactive: 4.23%"}
{"smiles": "Cc1[nH]n(-c2ccccc2)c(=O)c1/C=N/NC(=O)COc1ccccc1[N+](=O)[O-]", "activity change, negative = inhibition": "inactive: 15.2%"}
{"smiles": "Cc1ccc(C(=O)Nc2ccc(N3CCOCC3)nc2)cc1", "Potency": "inconclusive: 25.1 µM [inhibitor, single point]"}
{"smiles": "O=C1COc2cc(S(=O)(=O)CCC(=O)N3CCN(c4ccccc4)CC3)c(Cl)cc2N1", "activity change, negative = inhibition": "inactive: 20.9%"}
{"smiles": "Cc1cc(C)cc(-n2ccnc(NCc3ccc(F)cc3)c2=O)c1", "Potency": "inconclusive: 56.2 µM [inhibitor, single point]"}
{"smiles": "CCC1CCCCN1C(=S)Nc1ccc(OC(F)F)cc1", "note": "(stereo not drawn)", "activity change, negative = inhibition": "inactive: 23.5%"}
{"smiles": "CCOC(=O)C1CCCN(Cc2ccccc2F)C1", "note": "(stereo not drawn)", "Potency": "inconclusive: 44.7 µM [inhibitor, partial curve]"}
{"smiles": "CC(=O)Nc1ccc(S(=O)(=O)Nc2cc([N+](=O)[O-])ccc2C)cc1", "Potency": "inconclusive: 4.47 µM [inhibitor, full curve]"}
{"smiles": "CCCCCC(=O)NNC1=NCC(Cc2ccccc2)S1", "note": "(stereo not drawn)", "Potency": "inconclusive: 79.4 µM [inhibitor, single point]"}
{"smiles": "COc1ccc(CNC(=O)c2sc(=S)n(-c3ccccc3)c2N)cc1", "Potency": "inconclusive: 8.91 µM [inhibitor, full curve, poor fit]"}
{"smiles": "O=C(O)Cc1ccc(O)c(O)c1", "Potency": "inconclusive: 89.1 µM [inhibitor, single point]"}
{"smiles": "Cc1cc(CNC(=O)C2CCC(=O)N(CCc3cccc(F)c3)C2)nn1C", "note": "(stereo not drawn)", "activity change, negative = inhibition": "inactive: 33.1%"}
{"smiles": "O=C1CCc2cc(Br)ccc2O1", "activity change, negative = inhibition": "inactive: 48.5%"}
{"smiles": "CC(=O)OCON[N+]([O-])=NC1CCCCC1", "Potency": "inconclusive: 25.1 µM [inhibitor, full curve, poor fit]"}
{"smiles": "CCn1c2ccccc2c2cc(NC(=O)CNCC3CCCO3)ccc21", "note": "(stereo not drawn)", "Potency": "inconclusive: 17.8 µM [inhibitor, partial curve, poor fit]"}
{"smiles": "N#C/C(=N/Nc1ccc([N+](=O)[O-])cc1)C(=N)N1CCCCC1", "Potency": "inconclusive: 39.8 µM [inhibitor, partial curve]"}
{"smiles": "Cc1ccc(OCCCCN(C)Cc2ccccc2)c(Br)c1", "Potency": "inconclusive: 15.8 µM [inhibitor, full curve]"}
{"smiles": "O=C(O)CN1C(=O)/C(=C\\c2ccc(OC(=O)c3ccco3)cc2)SC1=S", "activity change, negative = inhibition": "inactive: -30.7%"}
